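96-well plates; 48 h exposure; 5 concentrations. Endpoints by linear interpolation between flanking doses. Not reached: highest tested concentration assigned. GI50: concentration for 50% inhibition of growth. TGI: total growth inhibition.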
Tested on: NCI-H322M lung
Assay: growth of human tumour cells (NCI), 48 h

Row | Compound | GI50 [nM] | TGI [nM]
1 | C#C[C@]1(O)CC[C@H]2[C@@H]3CC=C4c5sc(Nc6ccncc6)nc5CC[C@]4(C)[C@H]3CC[C@@]21C | 839 | 3040
2 | CCN(CC)c1ccc(/C=N/NC(=O)c2ccc(NS(C)(=O)=O)cc2)c(O)c1 | 300 | 22000
3 | O=C(NNc1nc2cc(F)ccc2n2c(CO)ccc12)c1cnccn1 | 304 | > 100000

From PubChem BioAssay (NCI)
